In PubChem BioAssay AID504332 (National Center for Advancing Translational Sciences (NCATS), 2011):
The campaign covered roughly 350,000 compounds. About 31,000 (8.9%) were called active. The inconclusive results got no clear call from the source; some entries with a clear call stand among them for comparison. Calls come from the whole dose curve; as a rule, active = well fitted inhibition curve with a large enough effect; inconclusive = small, poorly fitted or top-dose-only effect; inactive = no such curve, though single readings can be large or run the other way. Potencies of inconclusive entries are doubtful fits and often do not repeat.

Molecular target: Histone-lysine N-methyltransferase EHMT2 (Homo sapiens) (UniProt Q96KQ7)
Sequence of UniProt Q96KQ7 (Q96KQ7 whole entry, looked up): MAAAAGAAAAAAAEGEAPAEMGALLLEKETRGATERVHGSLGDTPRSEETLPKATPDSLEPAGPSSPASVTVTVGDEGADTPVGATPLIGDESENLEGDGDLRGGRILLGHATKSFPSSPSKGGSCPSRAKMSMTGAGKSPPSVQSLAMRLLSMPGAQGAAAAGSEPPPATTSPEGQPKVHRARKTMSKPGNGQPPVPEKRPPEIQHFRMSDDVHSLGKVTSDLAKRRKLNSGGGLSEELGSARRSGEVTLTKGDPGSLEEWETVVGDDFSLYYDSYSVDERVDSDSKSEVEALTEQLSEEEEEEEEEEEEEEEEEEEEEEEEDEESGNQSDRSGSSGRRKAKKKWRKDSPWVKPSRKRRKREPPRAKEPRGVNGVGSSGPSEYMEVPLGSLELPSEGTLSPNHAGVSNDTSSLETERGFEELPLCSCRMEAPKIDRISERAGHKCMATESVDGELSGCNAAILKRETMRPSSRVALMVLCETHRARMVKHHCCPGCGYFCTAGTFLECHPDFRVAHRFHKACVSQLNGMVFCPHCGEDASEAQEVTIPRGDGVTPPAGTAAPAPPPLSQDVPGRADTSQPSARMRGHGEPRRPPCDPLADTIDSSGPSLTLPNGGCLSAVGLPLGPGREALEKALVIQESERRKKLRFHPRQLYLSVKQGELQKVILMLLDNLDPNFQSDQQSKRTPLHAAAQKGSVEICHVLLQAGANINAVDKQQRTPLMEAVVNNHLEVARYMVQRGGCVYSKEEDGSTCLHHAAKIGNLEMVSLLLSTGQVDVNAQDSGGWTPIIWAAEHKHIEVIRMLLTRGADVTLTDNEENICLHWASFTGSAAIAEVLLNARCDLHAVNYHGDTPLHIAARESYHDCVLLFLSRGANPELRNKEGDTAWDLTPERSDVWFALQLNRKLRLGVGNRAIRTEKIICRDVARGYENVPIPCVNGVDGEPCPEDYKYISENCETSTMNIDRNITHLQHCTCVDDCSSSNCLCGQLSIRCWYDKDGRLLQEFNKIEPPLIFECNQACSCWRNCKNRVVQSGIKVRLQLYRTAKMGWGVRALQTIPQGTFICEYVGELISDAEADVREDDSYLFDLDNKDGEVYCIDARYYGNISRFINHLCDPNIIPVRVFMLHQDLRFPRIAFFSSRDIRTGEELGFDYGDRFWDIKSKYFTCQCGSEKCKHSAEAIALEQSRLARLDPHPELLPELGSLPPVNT
Assay: qHTS Assay for Inhibitors of Histone Lysine Methyltransferase G9a; note: nearly all actives have a fitted effect of over 75% in size
Details: G9a H3K9 monomethylation, AlphaScreen, 2 h; activity, negative = inhibition: at 59 µM (top of the series) unless noted
Outline: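 Using a bead-based AlphaScreen, monomethylated H3K9 product from 2 h room-temperature reactions (G9a 20 nM, peptide 500 nM, SAM 20 uM) was detected with 0.5 ug/mL rabbit anti-H3K9me1 antibody.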
% is set by controls: 0 for no effect and ±100 for the full control effect; potency is the fitted concentration of half-maximal effect; tags give direction and shape of the fitted curve.

Compound | Potency | activity, negative = inhibition
CCN(CC)S(=O)(=O)c1ccc(C(=O)OCC(=O)NCc2ccco2)cc1 | inconclusive: 35.5 µM [inhibitor, partial curve, poor fit] | 
CC(C)CCC(C)NC(=O)c1ccc2nccnc2c1 (stereo not drawn) | inconclusive: 39.8 µM [inhibitor, single point] | 
Cc1ccc(-c2csc(-c3cc4c([nH]c3=O)CC(c3ccccc3)CC4=O)n2)cc1 (stereo not drawn) | active: 2.51 µM | 
CCc1ccccc1NC(=O)Nc1cccs1 | active: 50.1 µM | 
CC1CCCN(c2nc3c(-c4ccc(Cl)cc4)nnn3c3ccccc23)C1 (stereo not drawn) | inactive | 
NC(=O)NC(Cc1ccccc1)c1ccccc1 (stereo not drawn) | inactive | 
O=C(Nc1nc2c(s1)CCCC2=O)c1cnccn1 | inconclusive: 1.58 µM [inhibitor, partial curve, poor fit] | 
CC(C)N(Cc1nc(-c2ccc(Cl)cc2)no1)C(=O)c1ccc(C(C)(C)C)cc1 | inactive | 
COc1ccc(Cc2n[nH]c(=S)n2-c2ccc3c(c2)OCCO3)cc1 | active: 8.91 µM | 
Brc1ccc2c(c1)OCCOCCOCCOCCOCCO2 | inactive | 
Cc1ccccc1Cn1c(SCc2ccc(C(=O)NC3CCCCC3)cc2)nc2ccncc21 | inconclusive: 10 µM [inhibitor, partial curve] | 
COc1ccc(OC)c2[nH]c(=O)c(CCNC(=O)C(=O)c3c[nH]c4ccccc34)cc12 | active: 50.1 µM | 
COC(=O)c1cc(NC(=O)c2nccnc2C(=O)O)cc(C(=O)OC)c1 | active: 44.7 µM | 
C/C(=N\NC(=O)c1cc(C)nc2ccccc12)c1ccco1 | inactive | 
COc1cc(Cn2ccnc2)c(OC)cc1Cn1ccnc1 | inconclusive: 39.8 µM [inhibitor, single point] | 
O=C(c1ccc(COc2ccccc2Cl)o1)N1CCN(c2ccccc2)CC1 | inconclusive: 89.1 µM [inhibitor, single point] | 
CCOC(=O)CNC(=O)c1nn(-c2cccc(OC)c2)c(=O)c2ccccc12 | inactive | 
O=C(CSc1n[nH]c(-c2ccc(S(=O)(=O)NC3CCCCC3)cc2)n1)N1CCCC1 | inconclusive: 89.1 µM [inhibitor, single point] | 
O=S(=O)(Nc1ccc(O)cc1)c1cccc2cccnc12 | inconclusive: 89.1 µM [inhibitor, single point] | 
CNC(=O)c1ccc(NC(=O)CN2c3cccc4cccc(c34)S2(=O)=O)cc1 | active: 44.7 µM | 
C/C(=N\Nc1cc(N2CCOCC2)ncn1)c1ccc(O)cc1 |  | inactive: 27.5% [at 0.501 µM]
Cn1cc(CCC(=O)NCc2ccc3c(c2)OCO3)c2ccccc21 | active: 25.1 µM | 
CCc1ccc(-c2nc(CSCC(=O)NCc3ccco3)c(C)o2)cc1 | inconclusive: 25.1 µM [inhibitor, single point] | 
COc1cccc(OCc2nc(-c3ccc(Br)o3)no2)c1 | inconclusive: 89.1 µM [inhibitor, single point] | 

Compound | Potency | activity, negative = inhibition
COc1ccccc1-n1c(C)c2c(OC)cccc(=O)c2c1C | inconclusive: 10 µM [inhibitor, partial curve, poor fit] | 
Fc1ccc(NCc2ccccc2-c2nnc(-c3ccccc3Cl)o2)cc1 | inactive | 
Cc1cccc(NC(=O)CSc2nc3ccc(NC(=O)c4ccccc4)cc3s2)c1 | inactive | 
Cc1ccc(CN2CCN(c3ccccc3)CC2)o1 | active: 22.4 µM | 
O=C(/C=C/c1ccc2c(c1)OCO2)NCc1ccc(F)cc1 | inconclusive: 3.98 µM [inhibitor, partial curve, poor fit] | 
CNS(=O)(=O)c1cn(CC(=O)NCc2ccc(OC)cc2)cc1S(=O)(=O)NC | inconclusive: 1.41 µM [inhibitor, full curve] | 
CC(C)[C@H](NC(=O)N1CCn2c1nc1ccccc12)C(=O)N[C@@H](Cc1ccccc1)C(=O)O | inconclusive: 7.08 µM [inhibitor, single point] | 
O=C(NCCN1C(=O)S/C(=C\c2cccs2)C1=O)c1ccc(=O)[nH]c1 | inconclusive: 35.5 µM [inhibitor, single point] | 
COc1ccc2c(Cl)c(C(=O)N/N=C/c3c(C)[nH]c4ccccc34)sc2c1 | inactive | 
Cc1ccc(C(=O)Nc2sc(C)c(-c3ccccc3)c2C(N)=O)cc1[N+](=O)[O-] | active: 39.8 µM | 
CCN1C(=O)CC(c2ccc(OC(C)C)cc2)C1=O (stereo not drawn) | inactive | 
CCOc1ccccc1C(=O)NCc1ccco1 | active: 44.7 µM | 
COc1ccc(-c2c(C)nc3c(-c4ccccn4)cnn3c2N)cc1 | inactive | 
CC(=O)Nc1c(O)nc(SCC(=O)Nc2nnc(CC(C)C)s2)[nH]c1=O | inconclusive: 28.2 µM [inhibitor, single point] | 
COc1ccc(C(=O)Cc2cc(OC)c(OC)cc2[N+](=O)[O-])c(OC)c1 | inactive | 
COc1cc(NC(C(=O)Nc2cccc(C(C)=O)c2)c2ccccc2)cc(OC)c1OC (stereo not drawn) | inconclusive: 100 µM [inhibitor, single point] | 
CCOC(=O)c1c(-n2cccc2)sc2c1CCCC2=O | inconclusive: 39.8 µM [inhibitor, single point] | 
CC(=O)c1ccc(N2C(=O)[C@@H]3C(CCC(N)=O)NC4(C(=O)Nc5c4ccc(Cl)c5C)[C@@H]3C2=O)cc1 (stereo partly drawn) | inconclusive: 89.1 µM [inhibitor, single point] | 
C=CCOC(=O)C1=C(C)NC(SCC(=O)NC(=O)OCC)=C(C#N)C1c1cccnc1 (stereo not drawn) | active: 50.1 µM | 
CCNC(=S)NNC(=O)c1cc(-c2ccccc2C)nc2ccccc12 | inconclusive: 7.94 µM [inhibitor, single point] | 
COc1cc(NC(=O)c2cccs2)c(OC)cc1NC(=O)c1ccco1 | inconclusive: 89.1 µM [inhibitor, single point] | 
CN(CC(=O)Nc1cccc(F)c1)C(=O)CN1C(=O)C2CCCCC2C1=O (stereo not drawn) | inactive | 
Cc1nnc(SCC(=O)NCc2ccc(F)cc2)[nH]c1=O | inconclusive: 50.1 µM [inhibitor, partial curve] | 
CC(Oc1cc2oc(=O)c3c(c2cc1Cl)CCC3)C(=O)N1C[C@H]2C[C@@H](C1)c1cccc(=O)n1C2 (stereo partly drawn) |  | inactive: -4.91% [at 12.7 µM]
